Measured values from the antibiotic and cytotoxicity screens of Wong et al. (2023).
The list shows a part of the results.

Each molecule was assayed on S. aureus RN4220 (assay: growth inhibition call (relative growth <= 0.2)). Settings: 50 µM.

Growth inhibition call, inactive:
CCN(CC)CCNC(=O)c1cc(S(C)(=O)=O)ccc1OC.Cl
C[C@H]1CN([C@@H](C)CO)C(=O)c2cc(NC(=O)Nc3ccc(C(F)(F)F)cc3)ccc2O[C@@H]1CN(C)S(=O)(=O)c1ccc(F)cc1
C[C@H]1CN([C@@H](C)CO)C(=O)Cc2cc(NC(=O)CCCCCC(=O)Nc3ccccc3N)ccc2O[C@H]1CN(C)S(=O)(=O)c1cn(C)cn1
O=C(C[C@H]1CC[C@@H]2[C@H](COC[C@H](O)CN2C(=O)c2ccccc2)O1)N1CCOCC1
COc1ccc(S(=O)(=O)Nc2ccc3c(c2)C(=O)N([C@@H](C)CO)C[C@@H](C)[C@@H](CN(C)Cc2ccc4c(c2)OCO4)OCCCC[C@@H](C)O3)cc1
C[C@@H]1CN([C@@H](C)CO)S(=O)(=O)c2ccc(-c3cccc(C#N)c3)cc2O[C@@H]1CN(C)C(=O)c1cccnc1
C[C@H](CO)N1C[C@H](C)[C@@H](CN(C)Cc2ccc(C(F)(F)F)cc2)Oc2ccc(NC(=O)Nc3ccc(C(F)(F)F)cc3)cc2CC1=O
COc1ccc(NC(=O)Nc2ccc3c(c2)C(=O)N([C@H](C)CO)C[C@H](C)[C@H](CN(C)C(=O)Cc2ccccc2)OCCCC[C@H](C)O3)cc1
COc1ccc(S(=O)(=O)N(C)C[C@H]2Oc3ccc(NS(=O)(=O)c4cn(C)cn4)cc3C(=O)N([C@@H](C)CO)C[C@@H]2C)cc1
Cc1noc(C)c1NC(=O)Nc1ccc2c(c1)C(=O)N([C@H](C)CO)C[C@H](C)[C@@H](CN(C)Cc1ccccc1)OCCCC[C@H](C)O2
